Experimental data reported in PubChem BioAssay (NCI).
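Interpolation was linear, between the two tested concentrations surrounding the appropriate level; five concentrations were tested over 48 hours in 96-well plates. Abbreviation: GI50, concentration required for 50% inhibition of growth. TGI: concentration producing complete growth inhibition.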

Test system: NCI-H322M lung
Experiment: NCI anticancer screen, dose series, 48 h

| Compound | GI50 [µM] | TGI [µM] |
| --- | --- | --- |
| COCCOCCOCCOc1ccc(-n2cc(CCCN(CCNc3ccnc4cc(Cl)ccc34)C(=O)CCC(=O)O[C@@H]3O[C@@H]4OC5(C)CC[C@H]6[C@H](C)CC[C@@H]([C@H]3C)[C@@]46OO5)nn2)cc1 | > 10.3 | > 10.3 |
| O=C(COc1ccc(NC(=O)Nc2ccc(Cl)c(Cl)c2)cc1)N=Nc1c(O)[nH]c2ccc(Cl)cc12 | 2.47 | 5.9 |
